Measurements reported in the supplement of paper PMC8007513.
Structures can show the parent of a compound that is named as a salt. ± gives the standard error. Among all 1,300 compounds or so, about 130 (10%) showed an effect of 50% or more. Only a part is listed here, and it is no random draw.

Test system: Trichoderma virens ATCC 9645
Assay: growth yield (OD600) with compound + IPBC relative to untreated control; higher = less growth inhibition
Details: compound concentration: 100 uM, IPBC concentration: 200 ng/ml
Summary of the method: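 Spores of Trichoderma virens ATCC 9645, taken from potato dextrose agar plates grown for 7 days, were suspended at 15,000 spores ml^−1 in potato dextrose broth. In 96-well plates, 100 μl aliquots held library compounds at 100 μM final, either alone or together with a biocide at 200 ng ml^−1, and were grown at 30 °C. A BioTek EL800 read OD600 at 40 h and 72 h. Growth values are given relative to the control lacking both agents and are means of duplicate screens.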

| SMILES | growth yield (40 h) [%] | growth yield (72 h) [%] |
| --- | --- | --- |
| COc1ccccc1OCC(O)CO (configuration not stated) [Guaifenesin] + CCCCNC(=O)OCC#CI [3-iodo-2-propynyl butylcarbamate (IPBC)] | 98.6 ± 11 | 96 ± 6.2 |
| CC(=O)[C@H]1CC[C@H]2[C@@H]3C=CC4=CC(=O)CC[C@@]4(C)[C@@H]3CC[C@]12C [Dydrogesterone] + CCCCNC(=O)OCC#CI [3-iodo-2-propynyl butylcarbamate (IPBC)] | 67.8 ± 2.7 | 82.3 ± 2.2 |
| C[C@H]1O[C@@H](O[C@H]2[C@@H](O)C[C@H](O[C@H]3[C@@H](O)C[C@H](O[C@H]4CC[C@@]5(C)[C@H](CC[C@@H]6[C@@H]5C[C@@H](O)[C@]5(C)[C@@H](C7=CC(=O)OC7)CC[C@]65O)C4)O[C@@H]3C)O[C@@H]2C)C[C@H](O)[C@@H]1O [Digoxin] + CCCCNC(=O)OCC#CI [3-iodo-2-propynyl butylcarbamate (IPBC)] | 81.3 ± 1.6 | 89.6 ± 4.2 |
| COc1cc([S+](C)[O-])ccc1-c1nc2cccnc2[nH]1 (configuration not stated) [Sulmazole] + CCCCNC(=O)OCC#CI [3-iodo-2-propynyl butylcarbamate (IPBC)] | 110 ± 9.8 | 107 ± 4.2 |
| CC[C@H](C)[C@H]1O[C@]2(C=C[C@@H]1C)C[C@@H]1C[C@@H](C/C=C(\C)[C@@H](O[C@H]3C[C@H](OC)[C@@H](O[C@H]4C[C@H](OC)[C@@H](O)[C@H](C)O4)[C@H](C)O3)[C@@H](C)/C=C/C=C3\CO[C@@H]4[C@H](O)C(C)=C[C@@H](C(=O)O1)[C@]34O)O2.CO[C@H]1C[C@H](O[C@H]2[C@H](C)O[C@@H](O[C@@H]3/C(C)=C/C[C@@H]4C[C@@H](C[C@]5(C=C[C@H](C)[C@@H](C(C)C)O5)O4)OC(=O)[C@@H]4C=C(C)[C@@H](O)[C@H]5OC/C(=C\C=C\[C@@H]3C)[C@]54O)C[C@@H]2OC)O[C@@H](C)[C@@H]1O [Avermectin B1] + CCCCNC(=O)OCC#CI [3-iodo-2-propynyl butylcarbamate (IPBC)] | 115.5 ± 0.79 | 110 ± 2 |
| O=C(OCC(O)CO)c1ccccc1Nc1ccnc2cc(Cl)ccc12 (configuration not stated) [Glafenine hydrochloride] + CCCCNC(=O)OCC#CI [3-iodo-2-propynyl butylcarbamate (IPBC)] | 84.3 ± 2.4 | 97.3 ± 1.3 |
| CC(C(=O)O)c1ccc(-c2ccccc2)c(F)c1 (configuration not stated) [Flurbiprofen] + CCCCNC(=O)OCC#CI [3-iodo-2-propynyl butylcarbamate (IPBC)] | 43.4 ± 3.3 | 76.9 ± 2 |
| C[C@]12CCC(=O)C=C1CC[C@@H]1[C@@H]2C(=O)C[C@]2(C)C(=O)CC[C@@H]12 [Adrenosterone] + CCCCNC(=O)OCC#CI [3-iodo-2-propynyl butylcarbamate (IPBC)] | 83.7 ± 1.4 | 90 ± 1.5 |
| CN(C)C(=O)C(CCN1CCC(O)(c2ccc(Cl)cc2)CC1)(c1ccccc1)c1ccccc1 [Loperamide hydrochloride] + CCCCNC(=O)OCC#CI [3-iodo-2-propynyl butylcarbamate (IPBC)] | 68.9 ± 0.95 | 99.3 ± 1.8 |
| CC(C(=O)O)c1ccc2c(c1)[nH]c1ccc(Cl)cc12 (configuration not stated) [Carprofen] + CCCCNC(=O)OCC#CI [3-iodo-2-propynyl butylcarbamate (IPBC)] | 33.2 ± 0.16 | 68.3 ± 1.1 |
| Cc1cccc(C)c1NC(=O)C(C)N (configuration not stated) [Tocainide hydrochloride] + CCCCNC(=O)OCC#CI [3-iodo-2-propynyl butylcarbamate (IPBC)] | 103 ± 7.6 | 103 ± 4.8 |
| CC(=O)NCCCS(=O)(=O)O [Acamprosate calcium] + CCCCNC(=O)OCC#CI [3-iodo-2-propynyl butylcarbamate (IPBC)] | 102.9 ± 0.32 | 94.3 ± 2.4 |
| CCOC(=O)O[C@]1(C(=O)COC(=O)CC)CC[C@H]2[C@@H]3CCC4=CC(=O)C=C[C@]4(C)[C@H]3[C@@H](O)C[C@@]21C [Prednicarbate] + CCCCNC(=O)OCC#CI [3-iodo-2-propynyl butylcarbamate (IPBC)] | 110 ± 10 | 109 ± 4.5 |
| CC(C)(C)NCC(O)COc1cccc2c1CCC(=O)N2 (configuration not stated) [Carteolol hydrochloride] + CCCCNC(=O)OCC#CI [3-iodo-2-propynyl butylcarbamate (IPBC)] | 81.3 ± 1.6 | 89.9 ± 1.6 |
| C=C1c2c(Cl)ccc(O)c2C(=O)C2=C(O)[C@]3(O)C(=O)C(C(N)=O)=C(O)[C@@H](N(C)C)[C@@H]3[C@@H](O)[C@H]12.O=C(O)c1cc(S(=O)(=O)O)ccc1O [Meclocycline sulfosalicylate] + CCCCNC(=O)OCC#CI [3-iodo-2-propynyl butylcarbamate (IPBC)] | 57.2 ± 7.3 | 84.1 ± 9.4 |
| COc1ccc2c(c1)c(CC(=O)O)c(C)n2C(=O)c1ccc(Cl)cc1 [Indomethacin] + CCCCNC(=O)OCC#CI [3-iodo-2-propynyl butylcarbamate (IPBC)] | 73.4 ± 3.8 | 94.39 ± 0.21 |
| Nc1nc2ccc(OC(F)(F)F)cc2s1 [Riluzole hydrochloride] + CCCCNC(=O)OCC#CI [3-iodo-2-propynyl butylcarbamate (IPBC)] | 27.3 ± 2.2 | 49.3 ± 1.9 |
| CN1CCC(=C2c3ccccc3CCc3cccnc32)CC1 [Azatadine maleate] + CCCCNC(=O)OCC#CI [3-iodo-2-propynyl butylcarbamate (IPBC)] | 99.6 ± 2.4 | 97.43 ± 0.94 |

| SMILES | growth yield (40 h) [%] | growth yield (72 h) [%] |
| --- | --- | --- |
| C(=C\c1ccccc1)/CN1CCN(C(c2ccccc2)c2ccccc2)CC1 [Cinnarizine] + CCCCNC(=O)OCC#CI [3-iodo-2-propynyl butylcarbamate (IPBC)] | 34.9 ± 5.1 |  |
| CN(C)CCOC(C)(c1ccccc1)c1ccccn1 (configuration not stated) [Doxylamine succinate] + CCCCNC(=O)OCC#CI [3-iodo-2-propynyl butylcarbamate (IPBC)] | 86.1 ± 1.3 | 91.1 ± 1.6 |
| CC(=O)c1ccc2c(c1)N(CCCN(C)C)c1ccccc1S2 [Acetopromazine maleate salt] + CCCCNC(=O)OCC#CI [3-iodo-2-propynyl butylcarbamate (IPBC)] | 70.84 ± 0.32 | 91.6 ± 0.94 |
| Oc1c(I)cc(Cl)c2cccnc12 [Clioquinol] + CCCCNC(=O)OCC#CI [3-iodo-2-propynyl butylcarbamate (IPBC)] | 11.4 | 5.66 ± 0.21 |
| CN(C(=O)C(Cl)Cl)c1ccc(OC(=O)c2ccco2)cc1 [Diloxanide furoate] + CCCCNC(=O)OCC#CI [3-iodo-2-propynyl butylcarbamate (IPBC)] | 73.7 ± 0.95 | 85.3 ± 2 |
| Nc1ccn([C@H]2CC[C@@H](CO)O2)c(=O)n1 [Zalcitabine] + CCCCNC(=O)OCC#CI [3-iodo-2-propynyl butylcarbamate (IPBC)] | 101 ± 4.1 | 98.7 ± 3 |
| CN1CCN(CCCN2c3ccccc3Sc3ccc(C(F)(F)F)cc32)CC1 [Trifluoperazine dihydrochloride] + CCCCNC(=O)OCC#CI [3-iodo-2-propynyl butylcarbamate (IPBC)] | 4.45 ± 0.95 | 3.46 ± 0.1 |
| CN(C)CCN1C(=O)c2ccccc2N(C)c2ccccc21 [Dibenzepine hydrochloride] + CCCCNC(=O)OCC#CI [3-iodo-2-propynyl butylcarbamate (IPBC)] | 82.1 ± 2.1 | 94.5 ± 2.8 |
| COc1ccc(OC)c(C(O)CNC(=O)CN)c1 (configuration not stated) [Midodrine hydrochloride] + CCCCNC(=O)OCC#CI [3-iodo-2-propynyl butylcarbamate (IPBC)] | 96.1 ± 4.3 | 104 ± 2.1 |
| OC(CNCC(O)C1CCc2cc(F)ccc2O1)C1CCc2cc(F)ccc2O1 (configuration not stated) [Nebivolol hydrochloride] + CCCCNC(=O)OCC#CI [3-iodo-2-propynyl butylcarbamate (IPBC)] | 11.3 ± 4.3 |  |
| CC[C@@H](C(N)=O)N1CCCC1=O [Levetiracetam] + CCCCNC(=O)OCC#CI [3-iodo-2-propynyl butylcarbamate (IPBC)] | 86.6 ± 2.1 | 91.2 ± 1.1 |
| CC[C@H](C)[C@H](N)C1=N[C@H](C(=O)N[C@@H](CC(C)C)C(=O)N[C@H](CCC(=O)O)C(=O)N[C@H](C(=O)N[C@H]2CCCCNC(=O)[C@H](CC(N)=O)NC(=O)[C@@H](CC(=O)O)NC(=O)[C@H](Cc3cnc[nH]3)NC(=O)[C@@H](Cc3ccccc3)NC(=O)[C@H]([C@@H](C)CC)NC(=O)[C@@H](CCCN)NC2=O)[C@@H](C)CC)CS1 [Bacitracin] + CCCCNC(=O)OCC#CI [3-iodo-2-propynyl butylcarbamate (IPBC)] | 99.4 ± 10 | 113 ± 2.5 |
| Cc1oncc1C(=O)Nc1ccc(C(F)(F)F)cc1 [Leflunomide] + CCCCNC(=O)OCC#CI [3-iodo-2-propynyl butylcarbamate (IPBC)] | 40.2 ± 3 |  |
| CCOC(=O)[C@H](CCc1ccccc1)N[C@@H](C)C(=O)N1Cc2ccccc2C[C@H]1C(=O)O [Quinapril hydrochloride] + CCCCNC(=O)OCC#CI [3-iodo-2-propynyl butylcarbamate (IPBC)] | 89.9 ± 4.1 | 93.1 ± 3.4 |
| CN1C(C)(C)CCCC1(C)C [Pempidine] + CCCCNC(=O)OCC#CI [3-iodo-2-propynyl butylcarbamate (IPBC)] | 92.9 ± 8.7 | 90.5 ± 7 |
| Cc1onc(-c2c(Cl)cccc2Cl)c1C(=O)N[C@@H]1C(=O)N2[C@@H]1SC(C)(C)[C@@H]2C(=O)O [Dicloxacillin sodium salt hydrate] + CCCCNC(=O)OCC#CI [3-iodo-2-propynyl butylcarbamate (IPBC)] | 86.9 ± 2.4 | 93.9 ± 3 |
| CN(C)/N=N/c1[nH]cnc1C(N)=O [Dacarbazine] + CCCCNC(=O)OCC#CI [3-iodo-2-propynyl butylcarbamate (IPBC)] | 86.25 ± 0.48 | 93.03 ± 0.52 |
